# Data published in PubChem BioAssay AID624296 (National Center for Advancing Translational Sciences (NCATS), 2012).
# The campaign covered roughly 350,000 compounds. About 9,900 (2.8%) were called active. The inconclusive results got no clear call from the source; some entries with a clear call stand among them for comparison. Calls follow the shape of the dose curve; as a rule, active = well fitted activation curve with a large enough effect; inconclusive = small, poorly fitted or top-dose-only effect; inactive = no such curve, though single readings can be large or run the other way. Potencies of inconclusive entries are left out as doubtful fits.
# Test: A quantitative high throughput screen for small molecules that induce DNA re-replication in MCF 10a normal breast cells. Also: nearly all actives have a fitted effect of over 50% in size. As to activity, positive = re-replication: % of control where 0% means no effect.
# Conditions: MCF 10A DNA re-replication, Hoechst nuclear intensity, 48 h; activity, positive = re-replication: at 46.1 µM (top of the series)
# Potency is read from the fitted curve at half-maximal effect; tags tell the direction and shape of the fitted curve.
SMILES,"activity, positive = re-replication",Potency
O=C(c1ccc(CNS(=O)(=O)c2ccc(Br)cc2)cc1)N1CCCC1,inactive: 5.62%,–
CCN(CC)c1nc(-c2ccccc2)nc2c1sc(=S)n2CC,inactive: -0.357%,–
Cc1c(N=Cc2cccnc2)c(=O)n(-c2ccccc2)n1C,inactive: 2.39%,–
Cc1cc(C)c2cc3c(N)c(C(=O)N4CCc5ccccc5C4)sc3nc2c1,inactive: -5.55%,–
CCN1C(=O)C(CC(=O)Nc2ccc(OC)cc2)N(CCc2ccccc2F)C1=S (centres undefined),–,"inconclusive [activator, single point]"
O=[N+]([O-])c1ccc(S(=O)(=O)N2CCN(c3ccc(N4CCOCC4)nn3)CC2)cc1,–,"inconclusive [activator, partial curve, poor fit]"
O=C(Nc1ncccc1O)c1ccc(Cl)c(S(=O)(=O)N2CCCCCC2)c1,–,"inconclusive [activator, partial curve, poor fit]"
COc1ccccc1N1CCN(/N=C(\C)c2ccccc2O)CC1,inactive: -0.187%,–
O=C(CSc1ccc(Br)cc1)Nc1cccc(S(=O)(=O)N2CCOCC2)c1,–,"inconclusive [activator, partial curve, poor fit]"
Cc1ccc(/C([O-])=C(/C(=S)Nc2ccc(SC(F)F)cc2)[n+]2ccccc2)cc1[N+](=O)[O-],–,"inconclusive [activator, full curve]"
CS(=O)(=O)n1nc(-c2ccc(Cl)cc2)nc1SCc1ccccc1,–,"inconclusive [activator, full curve, poor fit]"
Cc1cc(C)c(C(N)=O)c(SCC(=O)c2cc(C)n(-c3cc(C)on3)c2C)n1,–,active: 20.6 µM
CN(Cc1c(C(=O)N(C)Cc2ccccc2)nc2ccccn12)CC1Cc2ccccc2O1 (centres undefined),–,"inconclusive [activator, single point]"
CN(C(=O)CSc1nnc(Cc2cccs2)n1C1CC1)C1CCS(=O)(=O)C1 (centres undefined),inactive: -2.03%,–
COc1ccc2c(c1OC)C(=O)N1C2SC[C@H]1C(=O)NCCC(C)C (some centres undefined),–,"inconclusive [activator, full curve, poor fit]"
Cc1ccc(S(=O)(=O)NCc2ccc(C(=O)NCCN(Cc3ccccc3)C(C)C)cc2)cc1,–,"inconclusive [activator, single point]"
CCc1cccc(C)c1NS(=O)(=O)Cc1ccccc1,–,"inconclusive [activator, single point]"
Nc1c(C(=O)Nc2ccc(S(=O)(=O)N3CCCC3)cc2)sc2nc3cc4c(cc3cc12)CCC4,inactive: 15.1%,–
COc1ccc(C(NC(=O)c2ccc(-c3ccccc3)cc2)c2ccccc2)cc1 (centres undefined),inactive: 4.95%,–
Cc1sc2nc(SCC(=O)c3cccs3)n(Cc3ccco3)c(=O)c2c1C,inactive: 21.1%,–
CCCN(CCC)C(=O)CSc1nc2n[nH]c(C)c2c(=N)n1-c1ccc(OC)cc1,–,"inconclusive [activator, single point]"
CC(NC(=O)CCC(=O)c1ccc(F)cc1)C1CC2CCC1C2 (centres undefined),–,active: 10.3 µM
COc1ccc(-c2noc(CSc3nc4ccccc4c(=O)n3-c3ccccc3)n2)cc1OC,inactive: -1.26%,–

SMILES,"activity, positive = re-replication",Potency
COC(=O)[C@H](CC(C)C)NC(=O)Nc1ccc(S(N)(=O)=O)cc1,–,"inconclusive [activator, single point]"
COc1ccc(C(C(=O)NCC2CCCO2)N(C(=O)CNC(=O)c2cccs2)c2ccc(NC(C)=O)cc2)cc1OC (centres undefined),–,"inconclusive [activator, full curve, poor fit]"
Cc1[nH]c2ccccc2c1SCCNC(=O)c1ccc(Br)o1,inactive: -10.2%,–
O=S1(=O)NC(c2ccccc2)CC(CC2CCCCC2)O1 (centres undefined),inactive: 16%,–
CC(=O)Nc1nc(C)c(CCC2OCCO2)c(=O)[nH]1,inactive: 12.4%,–
CCOC(=O)c1c(NC(=O)COC(=O)/C=C/c2ccccc2)sc(C(=O)NC)c1C,inactive: -1.86%,–
CC(C)(Oc1ccc(Cl)cc1)C(=O)NC1CCN(Cc2ccccc2)CC1,–,"inconclusive [activator, single point]"
Cn1cccc1-c1cc(C(=O)N/N=C/c2ccc([N+](=O)[O-])cc2)[nH]n1,inactive: 2.29%,–
COc1ccc(CCNc2ncnc3c2nnn3Cc2ccccc2)cc1OC,–,"inconclusive [activator, partial curve]"
O=C(O)c1ccc(COc2ccccc2C=C2C(=O)c3ccccc3C2=O)cc1,–,"inconclusive [activator, single point]"
C=CCOc1c(Br)cc(/C=C2\SC(=Nc3ccccc3)NC2=O)cc1OC,–,"inconclusive [activator, single point]"
COc1ccccc1N1C(=O)CC1(C#N)c1ccc(OCc2ccccc2)cc1 (centres undefined),inactive: 15.1%,–
CCN(C[C@H]1N[C@@](CC)(C(=O)OC)[C@H]2C(=O)N(C)C(=O)[C@@H]12)S(=O)(=O)c1ccc(OC(F)(F)F)cc1,inactive: -7.1%,–
Oc1ccc(-c2nnc(Nc3cccc(O)c3)c3ccccc23)cc1,–,"inconclusive [activator, partial curve, poor fit]"
CCOc1ccc(N(CC(=O)Nc2ccccc2OC)S(C)(=O)=O)cc1,–,"inconclusive [activator, single point]"
CCSc1nnc(NC(=O)[C@@H](NC(=O)c2cc(OC)cc(OC)c2)C(C)C)s1,inactive: -2.33%,–
Cc1ccccc1-n1c(SCc2c(C)noc2C)nnc1-c1ccncc1,–,"inconclusive [activator, partial curve]"
CSc1cc(-c2ccc(Cl)cc2)c(C(=O)NN)s1,–,"inconclusive [activator, single point]"
Cc1[nH]c2ccccc2c1/C=N/Nc1nc2ccccc2[nH]1,–,"inconclusive [activator, single point]"
O=C1CC(c2ccccc2)CC2=C1C=Nc1ccccc1N2 (centres undefined),–,active: 18.4 µM
C=CCNC(=O)C1CCN(C(=O)c2ccc(-c3ccccc3)cc2)CC1,inactive: -0.243%,–
Cn1c(O)c(N=NC(=O)c2cc(-c3cccs3)nc3ccccc23)c2ccccc21,–,"inconclusive [activator, full curve, poor fit]"
CCn1ccnc1CN(C)Cc1nc(-c2ccccc2)no1,–,"inconclusive [activator, single point]"

SMILES,"activity, positive = re-replication",Potency
COc1ccc(OCC(=O)N/N=C(\CCC(=O)O)c2cccs2)cc1,–,"inconclusive [activator, single point]"
N/C(=N\N=C\c1ccc(Cl)cc1)N/N=C/c1ccc(Cl)cc1,–,"inconclusive [activator, single point]"
COc1ccc(C(C)=O)cc1CSc1nc2cc(C(=O)O)ccc2c(=O)n1Cc1ccccc1,–,"inconclusive [activator, full curve]"
CCN1C(=O)C(CC(=O)Nc2ccc(OC)cc2)N(CCc2ccc(OC)cc2)C1=S (centres undefined),–,"inconclusive [activator, single point]"
O=C(CNC(=O)C(c1ccccc1)c1ccccc1)N/N=C\c1ccc2c(c1)OCO2,–,"inconclusive [activator, single point]"
Cn1c(SCC(=O)NNC(=O)Cc2ccccc2)nnc1-c1ccccc1,inactive: 2.18%,–
CC(SC#N)C(=O)C12CC3CC(CC(C3)C1)C2 (centres undefined),–,active: 18.4 µM
CNC(=O)C(C#N)(Cc1cc(C(C)=O)ccc1OC)Cc1cc(C(C)=O)ccc1OC,inactive: 14.1%,–
CCOC(=O)Cc1csc(SCC(=O)Nc2cc(Cl)ccc2Oc2ccccc2)n1,–,"inconclusive [activator, single point]"
COc1ccc(/C=N/Nc2cc(C)nc3c(C)cccc23)cc1,–,active: 18.4 µM
COCCN(C(=O)Cc1ccc(OC)c(OC)c1)c1nc(-c2cc(OC)ccc2OC)cs1,–,"inconclusive [activator, single point]"
COc1ccc(/C=N/NC(=O)c2ccncc2)cc1CN1CCCc2ccccc21,–,"inconclusive [activator, partial curve, poor fit]"
CCNC(=O)CSc1nnc(-c2cccc(S(=O)(=O)N(CC)CC)c2)n1CCc1ccccc1,inactive: 1.33%,–
C#CCOCCOCCOCCNc1nc(N2CCN(C(=O)CCCCCCCCCCNC(=O)Cn3cc(C[C@@H](C)O)nn3)CC2)nc(N2CCN(C(=O)CCCCCCCCCCNC(=O)[C@H](CCCCN)n3cc(C[C@@H](C)CC)nn3)CC2)n1,–,"inconclusive [activator, single point]"
Cc1ccc(CSCC(=O)N(CCC(C)C)c2c(N)n(Cc3ccccc3)c(=O)[nH]c2=O)cc1,–,"inconclusive [activator, single point]"
CC1(C)CC(=O)C(C(=O)/C=C/NCCc2ccccc2)C(=O)C1,–,"inconclusive [activator, single point]"
Cc1cc(C)c(-c2csc(NC(=O)c3n[nH]c(=O)c4ccccc34)n2)c(C)c1,–,"inconclusive [activator, full curve, poor fit]"
Cc1ccc(NC(=O)Nc2c(C)[nH]c(=O)[nH]c2=O)cc1Cl,–,"inconclusive [activator, single point]"
O=C(N/N=C/c1ccoc1)c1cc(Br)ccc1O,inactive: 2.45%,–
O=C(/C=C/c1ccc(OCCCF)cc1)N1CCN(Cc2ccccc2)CC1,inactive: 12.6%,–
CC(C)CCn1nnnc1C(c1ccc(N(C)C)cc1)N1CCN(C(=O)c2ccco2)CC1 (centres undefined),–,"inconclusive [activator, partial curve, poor fit]"
CN(C(=O)c1ccc(NC(=O)Cc2cccc([N+](=O)[O-])c2)cc1)C1CCCC1,inactive: -1.08%,–
Cc1ccccc1-n1nc2c(c1NC(=O)c1cc3ccccc3o1)CS(=O)(=O)C2,inactive: 2.92%,–
